The supplement of paper PMC10126150
Sequences with one replicate were seen in a single cluster, so their values are uncertain.

Test system: ATP
Experiment: switch fluorescence ratio, 500 uM ATP over buffer (Cy3 cluster intensity, sum of 5 cycles each) (fold (ratio)); higher = stronger signal-on switching upon ATP binding; sequences stand for … in TCGTCGGCAGCGTCAGATGTGTATAAGAGACAGTTTTTTTTTTTTTTTTTTTTTTTTT…TC
Conditions: aptamer strand: ATP DNA aptamer (quencher-CACCTGGGGGAGTATTGCGGAGGAAGG + anchor), 100 nM annealed; ATP concentration: 500 uM; one replicate
Summary of the method: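 Cy3-labelled switching-strand clusters on a modified Illumina MiSeq flow-cell were annealed to 100 nM quencher-labelled ATP aptamer, imaged in selection buffer, then imaged after 15 min with 500 uM ATP at 22 °C. Five buffer/ATP cycles ran, with NaOH stripping and re-annealing between them. The fluorescence ratio is summed target-cycle over summed buffer-cycle Cy3 intensity per cluster, averaged per switch-domain sequence. Clusters outside 100-1000 RFU were excluded.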
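Also: ATP exposure 15 min at 22 °C before imaging.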

Sequence	switch fluorescence ratio
CCTAGGCCCA	1.07
GCTGTGTCGT	0.98
TCTTGGATTG	1.02
GGTACGGTGC	1.08
GTGCTCCCGT	1.07
TGGGCGCAGA	0.984
CTTGTCCCCA	1.02
ATAACTACCA	1.06
AAGGGCGCGA	1.17
CGTTGTGGCT	1.09
AATTGCGGAA	0.974
TTCGGTAGGA	0.983
GTGACTTTAT	0.973
CACGTCGGGC	0.992
CAATGAGCCA	1.01
CAAAGATCTG	1.02
TTTGTGAACC	1.01
AGGGTCACTT	0.994
GAGCACGCCG	0.997
TTGGTGTTTG	1
TACGCATCCT	1.35
AAGAGTAGGC	1.02
CTCTCGGTAC	3.82

Sequence	switch fluorescence ratio
TGAAAGCTCA	0.995
TTTTCTGGAT	1.03
ATCAGGTAGG	0.998
TCTTTTTCT	1.13
TGTCCCAG	1.02
GACTTAAC	1.08
TCCATTTGAC	1.05
CGCGCGGGAA	1
GTAGGGAAGC	1
ACTTTACCTC	1.5
AGCAACTACG	1.82
CCTCGCTAGG	3.51
TTTGGGCGAC	1.01
CTGAAGTTAA	1.14
TCGCCGTCCG	1.04
GTAGTCGTGT	0.974
GTGTTGACGT	0.972
AGGGATTTCA	1.04
CATACTGGTC	0.949
CGGGGGCA	1.01
TTACAGATAA	1.01
AAAGAAACCA	0.96
TCATTTTAAT	1.18

Sequence	switch fluorescence ratio
CGCCCGCCT	1.12
TTGTAACTGG	1.03
TGGGCTCACT	1.01
CAACGTACCG	1.27
AATTAGTGAA	0.988
CTCTACTAGC	1.08
ATCTGTGTGA	1.02
TCACAGAATA	1.01
AGTGATAACC	1.03
CGGAAGTGAC	1.26
GGCGGACGTA	1.06
CGGGTTGG	0.964
TGTCGTGTAA	1.01
ACTATATGTC	1.04
CTCTTGCTTA	1.04
TCCATTATAG	0.992
AACTATTCGC	1.03
TAGGTAGCAG	0.96
GTTAGGTATC	0.975
AGCGAGGAGG	1.02
AGTGTACACC	0.988
AGCGTTATCG	1.03
CATGTTGCTT	0.987

Sequence	switch fluorescence ratio
GATGTATGCT	1.01
GAAGAAATGA	1
AGAATGACGC	1.1
CACCTTGGCA	1.04
ATATAGGATG	0.954
ATACGTACGG	1.68
AACTACGGAG	1.05
CAACCTACTA	1.17
CCTAACGGCG	1.01
GTCCTCGCCG	0.948
ACAGTGGATG	0.935
TGCAGCGGCG	1
ATACCCAAAT	1.01
GTGGGGGCTA	0.955
ACGCGAACGT	1.03
TCGTGGTAGG	1.04
TGTCCGAAGT	1.1
AGAATCCTTT	1.01
AAACGTCATT	1.09
CCTCGTCTGC	1.49
GAGTGTGGCA	1.03
CGTTCAAATA	0.985
TACGCGGCG	0.997

Sequence	switch fluorescence ratio
TGGAGCTACG	1.04
AGTCAAAGAT	0.973
TAATTTACAC	1.06
TAGGATAACA	0.97
GGGCATTTTC	1.02
CACATATTTA	0.998
CCGGGAGAGT	1.09
CGCACCAAGC	1.17
TGGGATAACC	1.01
GTACTTTGGT	0.97
TACAGCGTG	0.943
AGACGGGATC	1.54
ATAAGGTACA	1.08
GGGCATGGAC	1.03
CCGAGCACGG	2.78
GAACTGGTCA	1
TCGGGGAAAA	0.947
GTCGCACCCT	1.06
CTTTTCCGAC	1.66
CCAAACGGGT	0.978
TGTGGGCCTC	1.06
GTTACAGACA	1.08
CGGTGGCGAG	0.988

Sequence	switch fluorescence ratio
GACTGGAGCT	1.16
ACCACCGTGA	1.24
ATCGAGAAAT	1.02
AACATGAGCT	1.05
GGTTCTGGAA	0.991
ATGTGATGTT	0.977
AAGGGAAAAT	1.01
GGGAAAGACC	1.42
GCGCAAATTG	0.989
CGATTCGTG	0.951
CACAATTTGT	1
ACGCGATAGT	1.23
ACGGCTAAC	1.15
CTACATTTAG	1.03
AAACATAAG	1.02
AAAGACAGGA	1.05
TCAAGCACGG	1.19
AGTATCTGCT	0.989
CTCCGAGGTT	1.64
GTAACCTAGA	1.05
AAGGGTATGA	1.06
ACCGGACCGC	1.76
ACCGAAGAGG	1.03

Sequence	switch fluorescence ratio
CCGTTATTAT	1.16
GATGATGAGT	1.01
TATGCGAGGC	1.07
AACATGAGAG	1.07
TAAGACGCTT	1.07
GTATTAACTT	1.02
GATGACGGAA	1.04
CAGAGTTATC	0.964
CTTCATTGGC	1.02
ACCAGGCACA	1.12
ATCGAAAGGT	1.06
ATGTGCGTGG	0.976
AGGAGGTCAC	0.988
ACGTCGAACT	1.04
CGCTCGAGAG	1.01
GCACGCTATT	1.25
GGACATTG	0.999
TTGTAGAGAC	0.99
GTGTAAAAAC	1.02
